Data from patent US20220339156A1, “COMPOSITIONS AND METHODS FOR TREATMENT OF DISORDERS ASSOCIATED WITH CLEC16A DYSFUNCTION OR LOSS” (THE CHILDREN'S HOSPITAL OF PHILADELPHIA, priority 2019, published 2022).
Like-named read-outs stand apart in the source and are kept apart here.

How the values were obtained:
SOCS1 = test: RT-PCR for SOCS1 expression in gWAT of control, KO and tofacitinib-treated KO mice; format: in vivo; details: treated KO vs Clec16a KO mice
Source text: (§1) To address the underlying mechanism behind the tofacitinib effect, we first performed RT-PCR for SOCS1 and SOCS3 expression and immunoblot analysis on gWAT isolated from controls, Clec16a KO and Clec16a KO tofacitinib-treated mice. We evaluated p-HSL, p-STAT1, p-STAT3, SOCS-1, AMPK, mTOR, P62 and LC3I/II and ER stress (FIG. 10 C-F).

cytokines and chemokines = test: Plasma cytokine/chemokine profiling with Mouse Cytokine Array panel; format: in vivo; details: treated KO mice vs Clec16a KO alone
Source text: FIGS. 10A-10I. […] SOCS1 (FIG. 10G) and SOCS3 (FIG. 10H) expression by RT-PCR in control, KO±tofacitinib mice. […] The representative graph is quantification of cytokines and chemokine from plasma of Control (Vehicle), KO and KO+Tofacitinib inhibitor treated mice using the Mouse Cytokine Array panel.
To gain insight in the inflammatory mechanism involved in the development, progression and pathogenesis of various autoimmune diseases, we profiled plasma from control, KO and U0126-treated KO mice for cytokines and chemokine using Mouse Cytokine Array panel.

Clec16a^ΔUBC KO mice = test: Neuronal tissues and neuronal phenotype of tofacitinib-treated Clec16a KO mice; format: in vivo
Source text: This may be due to the negative feedback loop associated with JAK/STAT/SOC1 signaling.

[1] = system: UBC-Cre-Clec16aloxP KO mice; test: Treatment of inducible Clec16a KO mice: fat/weight loss, lipodystrophic phenotype, survival
[2] = system: p-HSL, p-STAT1, p-STAT3, AMPK, ACC, mTOR, P62, LC3I/II, ER stress proteins, COX-2, p-IkBα; test: Immunoblot analysis on gWAT of control, Clec16a KO and tofacitinib-treated KO mice; format: in vivo
Source text: as §1
Another downstream effector of AMPK is mTOR signaling that regulates a plethora of functions, including autophagy. […] We also evaluated for lipolytic and ER stress rescue in tofacitinib-treated KO mice (FIGS. 10-E, F). […] Increased cytokines/chemokine levels reflect upon the inflammatory mechanism utilized during the development, progression and pathogenesis of various autoimmune/inflammatory diseases.

SOCS3 = test: RT-PCR for SOCS3 expression in gWAT of control, KO and tofacitinib-treated KO mice; format: in vivo; details: between groups
Source text: as §1

JAK = details: cited from earlier work

In the case of `C[C@@H]1CCN(C(=O)CC#N)C[C@@H]1N(C)c1ncnc2[nH]ccc12` [tofacitinib], the “SOCS1 mRNA expression” value (SOCS1) is reported as “significant reversal”, the “upregulated inflammatory cytokines and chemokines” value (cytokines and chemokines) is reported as “near complete reversal” and the “autophagy in neuronal tissues” value (Clec16a^ΔUBC KO mice; treated Clec16a KO mice) is reported as “rescued”. The neuronal phenotype (Clec16a^ΔUBC KO mice; treated Clec16a KO mice) was “did not alter”, the “STAT proteins in neuronal tissues” value (Clec16a^ΔUBC KO mice; treated vs untreated Clec16a^ΔUBC KO mice) was “no significant change” and the inflammatory phenotype [1] was “attenuated”. The lipodystrophic phenotype ([1]; listed as Tofacitinib) was “partially rescues”, the survival ([1]; listed as Tofacitinib) was “improves survival” and the “fat and weight loss” value ([1]; treated vs untreated KO) was “significantly attenuated”. The p-STAT1 ([2]; adipose tissue immunoblot) was “downregulating both p-STAT1 and p-STAT3 to control levels”, the p-STAT3 ([2]; adipose tissue immunoblot) was “downregulating both p-STAT1 and p-STAT3 to control levels” and the “autophagy defect (P62 accumulation)” value ([2]; gWAT) was “correcting the autophagy defect”. For the same compound, the “ER stress proteins (GRP78, ATF6, p-IRE1α, XBP1 and CHOP)” value ([2]; gWAT immunoblot) was “significant downregulation”, the “expression of COX-2” value ([2]; gWAT immunoblot) was “reduced” and the “expression of p-IkBα” value ([2]; gWAT immunoblot) was “reduced”. For the same compound, the p-AMPK ([2]; gWAT immunoblot) was “significantly reduced”, the p-HSL ([2]; gWAT immunoblot) was “significant downregulation” and the “phosphorylation of ACC” value ([2]; gWAT immunoblot) was “promoted”. For the same compound, the “phosphorylation of mTOR” value ([2]; gWAT immunoblot) was “reversal” and the SOCS3 expression (SOCS3) was “no significant difference”.
For `CC[C@@](C)(Nc1ccnc(-c2c[nH]c3ncccc23)n1)C(=O)NCC(F)(F)F` [Decemotiniba], the JAK selectivity (JAK; as listed, no test described) is listed as “JAK3”.
In the case of `CCCS(=O)(=O)N[C@H]1C[C@@H](N(C)c2ncnc3[nH]ccc23)C1` [PF-04965842], the JAK selectivity (JAK; as listed, no test described) is listed as “JAK1”.
In the case of `O=C(Nc1nc2cccc(-c3ccc(CN4CCS(=O)(=O)CC4)cc3)n2n1)C1CC1` [Filgotinib], the JAK selectivity (JAK) is given as “JAK1”.
In the case of `COc1nsc(NC(=O)N2C[C@H]3C[C@H](N(C)c4ncnc5[nH]ccc45)C[C@H]3C2)n1` [SHR0302], the JAK selectivity (JAK; as listed, no test described) is listed as “JAK1 > JAK2, JAK3”.
In the case of `N#CCC1(n2cc(-c3ncnc4[nH]ccc34)cn2)CN(C2CCN(C(=O)c3ccnc(C(F)(F)F)c3F)CC2)C1` [Itacitinib (INCB039110), Itacitinib], the JAK selectivity (JAK; as listed, no test described) is given as “JAK1”.
For `CC1(C)CN(C(=O)c2ccc(-c3cccc4nc(NC(=O)C5CC5)nn34)cc2)C1` [Solcitinibb], the JAK selectivity (JAK; as listed, no test described) is given as “JAK1”.
